The whole screen tested about 48,000 compounds, of which about 450 (0.94%) were called active. About 19% were inconclusive and are not listed. Calls follow the shape of the dose curve; as a rule, active = well fitted inhibition curve with a large enough effect; inconclusive = small, poorly fitted or top-dose-only effect; inactive = no such curve, though single readings can be large or run the other way. The list shows a part of the results.
Assay: Primary qHTS for Identification of Small Molecule Inhibitors of Huntingtin Promoter Activity; also: nearly all actives have a fitted effect of over 50% in size
Conditions: HEK293 HTT promoter firefly luciferase reporter (activity 0% = vehicle and -100% = no light), 24 h; series mostly up to 57.5 µM; activity change, negative = inhibition: at the top concentration
Method in brief: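 HEK293 luciferase promoter-reporter cells (2,500/well) plated 24 h, then compounds added at up to 57.5 uM final for 24 h at 37 °C. Firefly luminescence by Dual-Glo, normalized to vehicle (0%) and zero RLU (-100%).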

SMILES	activity change, negative = inhibition
CCSc1ncc(Cl)c(C(=O)Nc2nnc(CC)s2)n1	inactive: -4.64%
Cc1cccc(NC(=O)CSc2ncc(-c3ccccc3)[nH]2)c1C	inactive: 20.1%
O=C(c1ccccc1F)N1c2ncnn2C2(CCCCC2)[C@@H]2CCCC[C@@H]21	inactive: 19.1%
Cc1cccc(Nc2nc(N)nc(N)c2S(=O)(=O)c2ccccc2)c1	inactive: -14.7%
CCC(C(=O)NCCc1ccccc1)n1nc(C)c2sc3ccccc3c2c1=O (configuration not stated)	inactive: -7.86%
COc1ccc(C2=C(C)C(N3CCC(C(=O)Nc4ccccc4F)CC3)=NS2(=O)=O)cc1	inactive: -26.6%
Cc1c(C)n(Cc2ccc(F)cc2)c2ccc(C(=O)N3CCN(c4ccc(F)cc4)CC3)cc12	inactive: -21.7%
CCOc1ccc2oc(=O)cc(CN3CCN(C(=O)c4ccc(OC)c(OC)c4)CC3)c2c1	inactive: -6.26%
COc1ccc(CNC(=O)c2cc3c(=O)n(Cc4cccnc4)ccc3nc2C)cc1	inactive: -6.16%
COc1ccccc1CNC(=O)c1cc2c(=O)oc3ccc(C)cc3c2s1	inactive: -1.74%
CCCNS(=O)(=O)c1cc(-c2nn3c(C)nnc3c3ccccc23)ccc1C	inactive: -3.7%
Cc1ccc(-n2c(=O)c3c4c(sc3n(Cc3cc(=O)n5cc(Cl)ccc5n3)c2=O)CCC4)cc1C	inactive: -6.32%
CCc1ccc(-c2nn(CC(=O)NC3CCCCC3)c3c2cnc2ccc(F)cc23)cc1	inactive: -5.15%
CCOc1ccccc1NC(=O)C1CCN(S(=O)(=O)c2ccc3[nH]c(=O)oc3c2)CC1	inactive: -12.5%
CCc1cccc(OCC(=O)Nc2ccc(S(=O)(=O)Nc3ncccn3)cc2)c1	inactive: -23.3%
CC(C)(C)c1ccc(OCc2nc3ccccc3n2CCOc2ccccc2)cc1	inactive: -13.6%
Cc1cccc(C)c1OCc1nc2c3cnn(-c4ccccc4F)c3ncn2n1	inactive: -6.65%
CC(=O)c1ccc(S(=O)(=O)N2CCn3cccc3C2c2ccccc2F)cc1 (configuration not stated)	inactive: -12.1%
Cc1cc(C)cc(NC(=O)Cc2csc(C)n2)c1	inactive: -11%

SMILES	activity change, negative = inhibition
CCC(C)NC(=O)c1c(C)oc2ncn(CC(C)C)c(=O)c12 (configuration not stated)	inactive: 3.66%
O=C(CCS(=O)(=O)c1cc(Br)cc2c1N(C(=O)C1CC1)CC2)N1CCN(c2cccc(Cl)c2)CC1	inactive: -8.43%
CCOc1ccccc1OCC1CNCCO1 (configuration not stated)	inactive: -4.45%
CCCCNC(=O)C1CCC(Cn2c(=O)c3sccc3n(Cc3ccccc3)c2=O)CC1 (configuration not stated)	inactive: 4.14%
O=C(Cn1c(=O)n(CCc2ccccc2)c(=O)c2cccnc21)Nc1ccc(F)cc1	inactive: 21.4%
CCC(=O)N1CCc2cc(S(=O)(=O)NC(C(=O)NCCc3ccc(OC)c(OC)c3)C(C)C)ccc21 (configuration not stated)	inactive: -11.9%
Cc1cc(C)c(NC(=O)c2nc3ccccc3nc2N2CCCCC2)c(C)c1	inactive: -12.9%
CCCCNC(=O)CSc1nc2cc3c(cc2c(=O)n1CCCC(=O)NCCc1ccc(OC)c(OC)c1)OCO3	inactive: -15.4%
COc1cc(NC(=O)C2CCN(C(=O)c3sc4nc[nH]c(=O)c4c3C)CC2)cc(OC)c1OC	inactive: 2.31%
Cc1cc(C(=O)N2CCN(c3ccccc3)CC2)c2c(C)nn(-c3cccc(F)c3)c2n1	inactive: -14%
Cc1ccc(N2C(=O)c3n[nH]c(C)c3C2c2ccc(Cl)cc2)cc1 (configuration not stated)	inactive: 38.1%
Cc1ccccc1CSc1nnc2[nH]c(=O)cc(-c3ccccc3)n12	inactive: -6.89%
Cc1ccc(CNC(=O)c2nn(-c3ccc(Cl)cc3)nc2CO)cc1	inactive: -22.2%
CCc1ccc(-n2c(=O)c3c4c(sc3n(Cc3cc(=O)n5c(C)cccc5n3)c2=O)CCC4)cc1	inactive: -3.65%
Cc1cc(C)cc(NC(=O)CSc2oc(-c3ccccc3)nc2S(=O)(=O)c2ccc(Cl)cc2)c1	inactive: -14.6%
CCOC(=O)c1ccccc1NC(=O)Cn1ncc2c1-c1ccccc1OC2	inactive: -2.07%
CC(C)OCCCNC(=O)C(=O)Nc1c2c(nn1-c1ccccc1)CS(=O)(=O)C2	inactive: -2.34%
CCc1ccccc1NS(=O)(=O)c1ccc2nc(-c3ccccc3)[nH]c2c1	inactive: -22.2%
CC(=O)NC(CS)C(=O)O (configuration not stated)	inactive: 1.18%

SMILES	activity change, negative = inhibition
Cc1ccc2c(c1)N(CC(=O)NCCc1ccccc1)C(=O)CO2	inactive: -10.8%
CCOC(=O)c1c(C)[nH]c(C)c1S(=O)(=O)N1CCC(C(=O)Nc2ccc(OCC)cc2)CC1	inactive: -17.9%
CCCCn1cc(S(=O)(=O)c2cc(C)ccc2C)c(=O)c2cc(F)c(N3CCC(C)CC3)cc21	inactive: -20.9%
CCCC(=O)Nc1cc2nn(-c3ccccc3)nc2cc1C	inactive: 77.7%
CCc1cccc(NC(=O)CN(c2ccc(C)c(C)c2)S(=O)(=O)c2ccsc2C(=O)OC)c1	inactive: -9.7%
Cc1ccc(C)c(N2CCN(C(=O)CN3C(=O)COc4ccc(S(=O)(=O)N5CCCC5)cc43)CC2)c1	inactive: -13.4%
COc1ccc(C(=O)NCC(c2ccco2)S(=O)(=O)c2ccc(F)cc2)cc1 (configuration not stated)	inactive: -33.7%
CCCCN(CCCC)CCCNC(=O)Cn1cc2c(n1)-c1c(oc(C(=O)N3CCCC3)c1C)CC2	inactive: -8.7%
CSc1ncc(C(=O)Nc2ccccc2C(F)(F)F)c(-c2ccccc2)n1	inactive: 1.29%
CCCc1nc2nc(C)c(NS(=O)(=O)c3ccc(CC(C)C)cc3)c(=O)n2[nH]1	inactive: -12.4%
CCCn1c(CCC(=O)Nc2cc(C(=O)OC)cc(C(=O)OC)c2)nc2cccnc21	inactive: -16.8%
CCCn1c(CCC(=O)Nc2cc(OC)cc(OC)c2)nc2cccnc21	inactive: -17.8%
CCOC(=O)c1[nH]cnc1C(=O)Nc1cccc(OC)c1	inactive: -7.86%
Cc1cc(NC(=O)CCn2c(=O)c3cccn3c3cccnc32)ccc1Br	inactive: 3.06%
NC(=O)Cc1cccc(C(=O)c2ccccc2)c1N	inactive
CCC(=O)N1c2ccccc2CC1C(=O)NCCc1cc(OC)c(OC)c(OC)c1 (configuration not stated)	inactive: 0%
CCCN1CCN(c2nnc(-n3cccc3C(=O)Nc3cc(Cl)ccc3C)s2)CC1	inactive: -24.5%
CCSc1ncc(Cl)c(C(=O)Nc2nc3ccc(S(C)(=O)=O)cc3s2)n1	inactive: -18.6%
Cc1ccc(NC(=O)C2CCCN(S(=O)(=O)c3cccc4nsnc34)C2)cc1C (configuration not stated)	inactive: -29.5%

From PubChem BioAssay AID1508623 (National Center for Advancing Translational Sciences (NCATS), 2021)
